PubChem BioAssay AID686979 (National Center for Advancing Translational Sciences (NCATS), 2013)
Values joined by “and” are separate entries in the source; they are usually repeats but may differ in a detail not shown here. Equal entries are not always repeated. Hit rate of the full screen: of about 420,000 compounds, about 50,000 (12%) were called active. Inconclusive results, whose numbers are uncertain, are shown with a selection of clear calls. Calls follow the shape of the dose curve; as a rule, active = well fitted inhibition curve with a large enough effect; inconclusive = small, poorly fitted or top-dose-only effect; inactive = flat fitted curve, though single readings scatter. Potencies beside an inconclusive call are fits to weak or partial responses and may not hold up.

Assay: qHTS for Inhibitors of human tyrosyl-DNA phosphodiesterase 1 (TDP1): qHTS in cells in presence of CPT; also: nearly all actives have a fitted effect of over 55% in size
Conditions: chicken DT40 Tdp1-/-;hTDP1 cells + 20 nM CPT, ATP luminescence, 48 h; activity change, negative = growth inhibition: at 46.2 µM (top of the series) unless noted
In short: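 Cell growth measured by CellTiter-Glo luminescence after a minimum 48 h, 37 C compound exposure with 20 nM CPT in Tdp1-knockout DT40 cells stably expressing hTDP1, seeded 400/well; qHTS titration format.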
% is scaled to controls: 0 for no effect and ±100 for the full control effect; potency is read from the fitted curve at half-maximal effect; tags tell the direction and shape of the fitted curve.

| SMILES | Potency | activity change, negative = growth inhibition |
| --- | --- | --- |
| CN(C)c1ccc(/C=C/C=N/Nc2nc(N3CCOCC3)nc(N3CCOCC3)n2)cc1 | active: 16.4 µM |  |
| Clc1ccc(-[n+]2c(-c3cccc(Br)c3)[nH]c3nc4ccccc4nc32)cc1 | inconclusive: 20.6 µM [inhibitor, partial curve] |  |
| COc1ccc(-c2nc(SCC(=O)Nc3cccc(S(N)(=O)=O)c3)n[nH]2)cc1 |  | inconclusive: -32.6% [inhibitor] |
| CCOC(CNC(=O)c1cc2c(=O)n(CC)c3ccccc3c2s1)OCC | inconclusive: 18.4 µM [inhibitor, single point] |  |
| COc1cccc(NC(=O)CN(C)C(=O)/C=C/c2ccc(S(=O)(=O)N3CCCCCC3)cc2)c1 | inconclusive: 29.1 µM [inhibitor, single point] |  |
| Cc1cc(C)c(C(=O)NCC2CCCO2)c(C)c1C(=O)NCC1CCCO1 (stereo not drawn) | inactive |  |
| COc1ccc(-c2csc(C(O)c3cccc(OC)c3)n2)cc1 (stereo not drawn) | active: 11.6 µM |  |
| CCCCNC(=O)c1ccc2c(c1)N(CC)C(=O)c1ccccc1S2 | inconclusive: 20.6 µM [inhibitor, partial curve] |  |
| Cc1ccc2c(c1)N(C(=O)N1CCC(C(=O)NCc3ccccc3C)CC1)CC(C)O2 (stereo not drawn) | active: 20.6 µM |  |
| CCCn1c(C2CCCN2c2nc(C)cs2)nc2cc(Cl)c(Cl)cc21 (stereo not drawn) | inconclusive: 29.1 µM [inhibitor, single point] |  |
| CCCCNC(=O)c1c(-c2ccccc2)c(-c2ccccc2)nn(C)c1=O | inconclusive: 14.6 µM [inhibitor, single point] |  |
| CCc1sc(C(=O)Nc2nc(C)cs2)cc1C | inconclusive: 23.1 µM [inhibitor, single point] |  |
| CC(C)(C)C(=O)OCc1nc(-c2ccc(O)c(O)c2)cs1 | active: 6.51 µM |  |
| O=c1cc(-c2ccncc2)oc2c1ccc1ccccc12 | inconclusive: 25.9 µM [inhibitor, single point] |  |
| Cc1cccc(NC(=O)C(=O)NCc2ccc3c(c2)OCO3)c1C | inactive |  |
| COc1cccc(C2C(C(=O)Nc3ccc(Cl)cc3)=C(C)Nc3nc4ccccc4n32)c1OC (stereo not drawn) | active: 20.6 µM |  |
| COc1ccc(OC)c(N=Nc2c(O)c3ccccc3[nH]c2=O)c1 | active: 14.6 µM |  |
| CCOP(=O)(O)c1cccc(OCCOCCOc2cccc(P(=O)(O)OCC)c2)c1 | inactive |  |
| FC(F)Sc1ccc(Nc2ncnc3nc[nH]c23)cc1 | inconclusive: 29.1 µM [inhibitor, single point] |  |
| COCCN(C(=O)c1ccccc1)c1nc(-c2ccc(OC)cc2)cs1 | inconclusive: 25.9 µM [inhibitor, single point] |  |
| COc1ccc(N2CCN(C(=O)C3CCCN(C(=O)c4cc5sccc5n4C)C3)CC2)cc1 (stereo not drawn) | inconclusive: 18.4 µM [inhibitor, single point] |  |
| COc1ccc(/C=C2\CN(Cc3ccccc3)C/C(=C\c3ccc(OC)cc3)C2=O)cc1 | active: 10.3 µM |  |
| O=C1OCC/C1=C\NCCCN/C=C1\CCOC1=O | inactive |  |
| CCOC(=O)c1c(C)n(-c2ccccc2)c2ccc(OC(=O)COc3ccccc3)cc12 | inconclusive: 9.2 µM [inhibitor, single point] |  |
| CC1(C(=O)Nc2ccccc2)CCN1C(=O)C1(c2ccccc2)CC1 (stereo not drawn) | inconclusive: 11.6 µM [inhibitor, partial curve] |  |

| SMILES | Potency | activity change, negative = growth inhibition |
| --- | --- | --- |
| CC(=O)N1c2ccc(S(=O)(=O)NCc3ccccc3Cl)cc2CC1C (stereo not drawn) | inconclusive: 18.4 µM [inhibitor, single point] and inconclusive: 29.1 µM [inhibitor, single point] |  |
| O=C(/C=C/c1cccc(Cl)c1)NCc1cccs1 | inconclusive: 29.1 µM [inhibitor, single point] |  |
| COc1cc(CCCN2CCNC[C@@H]2Cc2ccc(O)cc2)cc(OC)c1OC | inactive |  |
| Cc1ccc(NC(=O)C2CCCN2C(=O)OCc2ccccc2)c(O)c1 (stereo not drawn) | inactive |  |
| CCCc1nnc(NC(=O)c2cc(=O)c3ccccc3o2)s1 | inactive |  |
| Cc1nn(-c2ccccc2)c(N)c1C(c1ccccc1)c1c(C)nn(-c2ccccc2)c1N | inconclusive: 18.4 µM [inhibitor, single point] |  |
| CN(C)c1ccc(C(=O)OCC(=O)NC2CCCCCC2)cc1 | inactive |  |
| Nc1cc(Cl)ccc1Oc1ccccc1 | inactive |  |
| C[C@H](CO)N1C[C@H](C)[C@@H](CN(C)S(=O)(=O)c2cccs2)OCc2cnnn2CCCC1=O | inactive |  |
| CC(C)c1ccc(Nc2nnc(SCC(=O)c3nnc(-c4ccccc4)o3)s2)cc1 | inconclusive: 23.1 µM [inhibitor, partial curve] |  |
| Cc1ccc(CN(c2ccc(C(=O)NCc3ccc4c(c3)OCO4)cc2)S(C)(=O)=O)cc1 |  | inconclusive: -31.2% [inhibitor] |
| O=C(O)c1ccc(-n2ncc3c2/C(=C/c2cccc([N+](=O)[O-])c2)CC3)cc1 | active: 16.4 µM |  |
| O=C(Cc1ccccc1)NNC(=O)c1ccccc1C(=O)O | inactive |  |
| Cc1cc(C)c(S(=O)(=O)NCC2CCC(C(=O)NCCCN3CCC(C)CC3)CC2)c(C)c1 (stereo not drawn) | inconclusive: 29.1 µM [inhibitor, single point] |  |
| CCCCCC(=O)Nc1cccc(C2=NOC3(C2)C[C@@H](C(N)=O)N(C(=O)Cc2ccc([N+](=O)[O-])cc2)C3)c1 (stereo partly drawn) | inconclusive: 23.1 µM [inhibitor, single point] |  |
| CC1CCCCC12NC(=O)N(CC(=O)Nc1ccc(N3CCCCC3)cc1)C2=O (stereo not drawn) | inconclusive: 20.6 µM [inhibitor, partial curve] |  |
| CCCN(CCC)S(=O)(=O)c1cccc(-c2csc(C)n2)c1 | inconclusive: 16.4 µM [inhibitor, single point] |  |
| CC(C)(C)C(=O)N1CCc2cc(-c3csc(N)n3)ccc21 | inconclusive: 9.2 µM [inhibitor, single point] |  |
| CCCCc1ccc(NC(=S)NCC2CCCO2)cc1 (stereo not drawn) | inactive |  |
| CC(C(=O)Nc1ccc2c(c1)OCO2)N(C)CC(=O)Nc1ccccc1Cl (stereo not drawn) | inconclusive: 8.2 µM [inhibitor, partial curve, poor fit] |  |
| CCOc1ccccc1NC(=O)CCCc1nc(-c2ccccc2Cl)no1 | active: 13 µM |  |
| CC(=O)NC(CC(=O)OCC(=O)Nc1ccc2c(c1)OCO2)c1ccccc1 (stereo not drawn) | inactive |  |
| Cc1ccc(S(=O)(=O)NCc2ccco2)cc1C(N)=O | inconclusive: 32.6 µM [inhibitor, single point] |  |
| Cc1ccc(N(Cc2cccs2)C(=O)C(C)Oc2ccc(Cl)c(C)c2)cc1 (stereo not drawn) | active: 11.6 µM |  |
| Clc1ccc(/C=N/N2CCN(Cc3ccccc3)CC2)cc1 | inconclusive: 9.2 µM [inhibitor, partial curve, poor fit] |  |

| SMILES | Potency | activity change, negative = growth inhibition |
| --- | --- | --- |
| CCCCN(C(=O)c1cc(CC)c(C)s1)c1c(N)n(CCC)c(=O)[nH]c1=O | inactive |  |
| Cn1nnc(NC(=S)NC(=O)c2cc(Cl)ccc2Cl)n1 | inactive |  |
| CCc1cccc(NC(=O)CSc2nncn3c2cc2sccc23)c1 | inconclusive: 25.9 µM [inhibitor, single point] |  |
| O=C(O)CCN1C(=O)/C(=C\c2cccc(OCC(=O)Nc3ccc(Cl)cc3)c2)SC1=S | inconclusive: 20.6 µM [inhibitor, single point] |  |
| Cc1cccc(C)c1NC(=O)C(c1ccccc1OC(F)(F)F)N1CCC(c2ccccc2)CC1 (stereo not drawn) | inconclusive: 18.4 µM [inhibitor, single point] |  |
| CCOc1ccc(Oc2ccccc2NC(=O)CSCC(=O)Nc2cc(C)on2)cc1 | active: 23.1 µM |  |
| O=C(O)c1ccc(/C=N/NC(=O)C(O)(c2ccccc2)c2ccccc2)cc1 | inactive |  |
| CCOC(=O)c1cccc(NC(=O)c2cccs2)c1 | active: 23.1 µM |  |
| Cc1ccc(Cn2c(C)nc3c(c2=O)c2nc4ccccc4nc2n3Cc2ccco2)cc1 | active: 25.9 µM |  |
| O=C(NCc1cccc(F)c1)c1ccc2nc(N3CCOCC3)sc2c1 | inactive |  |
| Cc1cc(C)c2nccc(/C=C/c3ccc(N(C)C)cc3)c2c1 | active: 11.2 µM |  |
| CCOC(=O)N1CCN(c2nc(-c3ccccc3)c3cc(C)ccc3n2)CC1 | inconclusive: 23.1 µM [inhibitor, single point] |  |
| O=C(COC(=O)C1CCN(c2ccc(C(F)(F)F)cn2)CC1)Nc1cccc(F)c1 | inconclusive: 10.3 µM [inhibitor, partial curve] |  |
| CCOC(=O)N1CCC(NC(=O)c2ccc3c(c2)N=C(CC)c2cc(C)ccc2S3)CC1 | active: 10.3 µM |  |
| Cc1cccc(-n2c(C)nc3ccsc3c2=O)c1 | inactive |  |
| COCCn1c(N2CCN(c3ccc(OC)cc3)CC2)nc2c1c(=O)[nH]c(=O)n2C |  | inconclusive: -31.8% [inhibitor] |
| O=C(CCc1nnc2n(CCc3ccccc3)c(=O)c3ccccc3n12)NCCCN1CCCCC1 | inconclusive: 16.4 µM [inhibitor, single point] |  |
| Cc1c(C)n(Cc2ccccc2)c2ccc(C(=O)N3CCN(c4ccc(F)cc4)CC3)cc12 | inconclusive: 29.1 µM [inhibitor, single point] |  |
| O=C(Cc1ccccc1)Nc1ccc(NC(=O)c2ccco2)cc1 | inactive |  |
| Cc1ccc(C(=O)Cn2c(C(=O)OCCO)cc3ccccc32)cc1 | inconclusive: 4.61 µM [inhibitor, single point] |  |
| CCN(Cc1ccccc1)C(=O)c1cc(-c2ccccc2)n[nH]1 | inconclusive: 25.9 µM [inhibitor, single point] |  |
| O=C(O)CSC1CC(=O)N(c2ccc(Br)cc2)C1=O (stereo not drawn) | inconclusive: 6.51 µM [inhibitor, single point] |  |
| COc1ccc(S(=O)(=O)NCCSc2nnnn2-c2ccccc2)cc1OC | active: 16.4 µM |  |
